We go through one molecule from patent publication CN112961250A (CHANGCHUN GENESCIENCE PHARMACEUTICALS CO LTD, dated 2021).

The assay concerns the target T1, 人VEGFA-His(金赛自构) (human, UniProt P15692 207-395).
T1 construct: also called hVEGFA
T1 sequence: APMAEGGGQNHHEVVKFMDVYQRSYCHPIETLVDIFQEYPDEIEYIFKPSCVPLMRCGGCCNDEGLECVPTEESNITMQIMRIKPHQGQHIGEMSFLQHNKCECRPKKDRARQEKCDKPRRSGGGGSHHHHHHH
In words: ELISA, human VEGFA-His coated at 1 μg/ml. (In general: ELISA stands for enzyme-linked immunosorbent assay.)

B1: Eylea (Fc fusion)
chain: SDTGRPFVEMYSEIPEIIHMTEGRELVIPCRVTSPNITVTLKKFPLDTLIPDGKRIIWDSRKGFIISNATYKEIGLLTCEATVNGHLYKTNYLTHRQTNTIIDVVLSPSHGIELSVGEKLVLNCTARTELNVGIDFNWEYPSSKHQHKKLVNRDLKTQSGSEMKKFLSTLTIDGVTRSDQGLYTCAASSGLMTKKNSTFVRVHEK[letters of human IgG1 Fc left out]
notes: Marketed drug used as the control; also called 再生元公司上市抗hVEGFA药物; 阳性对照药物Eylea
On to B1, for which the binding result is listed as “binds”.
